# Measurements: PubChem BioAssay (NCATS)
# Records with an inconclusive call do not appear. Calls come from the whole dose curve; as a rule, active = well fitted curve in the direction sought with a large enough effect; inconclusive = small, poorly fitted or top-dose-only effect, or another doubt; inactive = no such curve, though single readings can be large; an effect the other way counts as inactive or inconclusive. The source holds several records for some structures; these can differ, active in one and inactive in another. For part of its entries the source gives two or more results. This is not the full list of results. The source may hold further records. Results that share an entry repeat one measurement in other runs, samples, wells, individuals or studies. Marks in square brackets tell the records apart. Letters hold for one entry only.
# What was measured:
# [1] = qHTS of pediatric cancer cell lines to identify multiple opportunities for drug repurposing: Primary screen for TC32 cells (AID 1347089); settings: TC32 Ewing sarcoma viability, CellTiter-Glo luminescence, 48 h; series mostly up to 45.8 µM; note: nearly all actives have a fitted effect of over 60% in size
# Method in brief: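 TC32 cells, 500-1,000/well in growth medium, compound-treated 48 h at 37 °C; viability from CellTiter-Glo luminescence. Primary screen: MIPE 11-point (0.78 nM–46 µM final), NPC 8-point (0.59 nM–46 µM final); confirmatory at 11-point dilutions.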
# [2] = qHTS of pediatric cancer cell lines to identify multiple opportunities for drug repurposing: Primary screen for control Hh wild type fibroblast cells (AID 1347106); settings: Hh wild-type fibroblast viability, CellTiter-Glo luminescence, 48 h; series mostly up to 46 µM; note: nearly all actives have a fitted effect of over 55% in size
# Method in brief: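 Cells (500-1,000/well) in growth media were settled 5 h at 37 degrees C, then given compounds for 48 h. Viability was read as CellTiter-Glo luminescence. Primary runs used MIPE at 11 points (0.78 nM-46 µM) and NPC at 8 points (0.59 nM-46 µM); follow-ups used 11 points.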
# [3] = qHTS of pediatric cancer cell lines to identify multiple opportunities for drug repurposing: Confirmatory screen for BT-12 cells (AID 1347112); settings: BT-12 rhabdoid tumor cells, viability; series mostly up to 45.9 µM; note: nearly all actives have a fitted effect of over 55% in size
# Method in brief: (§1)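 Cells (500-1,000/well) rested 5 h, then received compounds for 48 h; metabolically active cells were measured by CellTiter-Glo luminescence. Final concentrations spanned up to 46 µM (MIPE, 11-point) or 0.59 nM-46 µM (NPC, 8-point) in primary screens, 11-point in follow-ups.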
# [4] = qHTS of pediatric cancer cell lines to identify multiple opportunities for drug repurposing: Confirmatory screen for LAN-5 cells (AID 1347113); settings: LAN-5 neuroblastoma cell viability; series mostly up to 45.9 µM; note: nearly all actives have a fitted effect of over 65% in size
# Method in brief: as §1
# [5] = qHTS of pediatric cancer cell lines to identify multiple opportunities for drug repurposing: Confirmatory screen for NB-EBc1 cells (AID 1347115); settings: NB-EBc1 neuroblastoma cells, viability (cytotoxicity); series mostly up to 45.9 µM;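 note: cells exposed to compound for 48 h before the viability read; nearly all actives have a fitted effect of over 45% in size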
# Method in brief: as §1
# [6] = qHTS of pediatric cancer cell lines to identify multiple opportunities for drug repurposing: Confirmatory screen for Rh18 cells (AID 1347125); settings: Rh18 rhabdomyosarcoma cells, viability; series mostly up to 45.9 µM; note: nearly all actives have a fitted effect of over 55% in size
# Method in brief: as §1
# [7] = qHTS of pediatric cancer cell lines to identify multiple opportunities for drug repurposing: Confirmatory screen for Rh30 cells (AID 1347126); settings: Rh30 rhabdomyosarcoma cell viability; series mostly up to 45.9 µM; note: nearly all actives have a fitted effect of over 55% in size
# Method in brief: as §1
# [8] = qHTS of pediatric cancer cell lines to identify multiple opportunities for drug repurposing: Confirmatory screen for SK-N-SH cells (AID 1347129); settings: SK-N-SH neuroblastoma cell viability; series mostly up to 46.1 µM;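 note: cells exposed to compound for 48 h before viability read; nearly all actives have a fitted effect of over 60% in size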
# Method in brief: as §1
# [9] = system: Zika virus NS2B-NS3 protease; assay: Primary screen GU AMC qHTS for Zika virus inhibitors (AID 1347154); settings: Zika NS2B-NS3 unlinked protease, AMC fluorogenic substrate; series mostly up to 54.1 µM; note: nearly all actives have a fitted effect of over 70% in size
# Method in brief: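 Fluorogenic AMC-substrate cleavage by noncovalent NS2B-NS3 protease complex (25 nM, pH 8.0 Tris buffer with Tween 20) followed for 15 minutes at room temperature (~20% conversion). Percent inhibition from ex340/em450 signal change, fitted by 4-parameter Hill equation.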
# Potency is the fitted concentration of half-maximal effect.
smiles,measurement,setting,value
Oc1c(Cl)cc(Cl)c2cccnc12,Potency,[1],active: 16.7 µM [sample A] and inactive [sample B]
COc1ccc(C(=O)CC(=O)c2ccc(C(C)(C)C)cc2)cc1,Potency,[1],inactive [sample A] and active: 14.7 µM [sample B]
COC(=O)Nc1nc2ccc(C(=O)c3ccccc3)cc2[nH]1,Potency,[2],inactive [sample A] and active: 8.33 µM [sample B]
Nc1nc(F)nc2c1ncn2[C@@H]1O[C@H](CO)[C@@H](O)[C@@H]1O,Potency,[3],inactive [sample A] and active: 2.33 µM [sample B]
same,Potency,[4],inactive [sample A] and active: 369 nM [sample B]
same,Potency,[5],inactive [sample A] and active: 1.31 µM [sample B]
same,Potency,[6],inactive [sample A] and active: 827 nM [sample B]
same,Potency,[7],inactive [sample A] and active: 1.31 µM [sample B]
same,Potency,[8],inactive [sample A] and active: 833 nM [sample B]
Nc1nc(=S)c2[nH]cnc2[nH]1,Potency,[7],active: 11.7 µM [sample A] and inactive [sample B]
CNS(=O)(=O)Cc1ccc2[nH]cc(CCN(C)C)c2c1,Potency,[9],inactive [sample A] and active: 30.4 µM [sample B]
